The results in this text go back to US20240050583A1, “PROTEIN-DRUG CONJUGATE AND SITE-SPECIFIC CONJUGATING METHOD” (HARBOUR BIOMED (SHANGHAI) CO., LTD, priority 2020, published 2024).

Entries after “also recorded” stand apart in the source; their conditions may differ.

The test system of one data set is HEK293T-hBCMA cells. Description: Cytotoxic killing experiment (Example 9.5), HEK293T-hBCMA. As to conditions: 72 h, CellTiter-Glo; proteins up to 10 nM, mc-vc-PAB-MMAE up to 20 nM. How it is done: The HEK293T-hBCMA, NCI-H929, HEK293T and SNU-16 cells were seeded in 96-well plates (Perkin Elmer, #6005225) respectively, with the following seeded cell number: 2500 cells/50 μL/well (HEK293T-hBCMA), 5000 cells/50 μL/well (NCI-H929), 2500 cells/50 μL/well (HEK293T), and 5000 cells/50 μL/well (SNU-16). Then, the plates were incubated overnight at 37° C. with 5% CO2. Then, a test sample serially pre-diluted was added at 50 μL/well. PR004433, PR004433-ADC and PR004432-ADC were diluted at a 3-fold concentration gradient from the highest final concentration of 10 nM, and mc-vc-PAB-MMAE was diluted at a 3-fold concentration gradient from the highest final concentration of 20 nM. In addition, a well without the test sample was set as a control well. Thereafter, the plates were incubated at 37° C. with 5% CO2 for 72 h, a CellTiter-Glo cell viability detection reagent (Promega, #G7573) was added, then the plates were incubated at room temperature for at least 10 min to obtain stable luminescence signals, and the luminescence values were detected using a microplate reader. The cell viability was calculated based on the luminescence values by the following formula: […]
(§1) The data were processed and analyzed by plotting using GraphPad Prism 8 software, and binding curves of the antibodies to target cells, EC50 values and other parameters were obtained through four-parameter nonlinear fitting.
For orientation: Cellular ATP, detected with luciferase, serves as a proxy for viable cell number.

The target of data set [1] is T1, NCI-H929 cells highly expressing human BCMA (Homo sapiens, UniProt Q02223).
T1 construct: tumor cells NCI-H929 (ATCC, CRL-9068) highly expressing human BCMA; host or cells: NCI-H929
T1 sequence (Q02223 1-184): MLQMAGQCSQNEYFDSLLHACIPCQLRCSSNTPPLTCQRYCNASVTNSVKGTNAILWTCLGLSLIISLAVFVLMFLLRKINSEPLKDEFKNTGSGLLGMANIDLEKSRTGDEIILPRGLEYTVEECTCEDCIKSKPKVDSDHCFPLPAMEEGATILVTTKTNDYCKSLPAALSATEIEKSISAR
Put plainly: FACS binding to NCI-H929 cells. The conditions noted are these: flow cytometry FACS. On the procedure: (§2) Specifically, the cells were digested and resuspended in a DMEM complete medium, and the cell density was adjusted to 1×10^6 cells/mL. The cells were seeded in a 96-well V-bottom plate (Corning, #3894) at 100 μL/well, followed by the addition of test antibodies diluted in a 3-fold gradient at a concentration that was 2 times the final concentration, each at 100 μL/well. The cells were incubated at 4° C. for 1 h away from light. Thereafter, the cells in each well were rinsed twice with 100 μL of pre-cooled PBS, and centrifuged at 500 g at 4° C. for 5 min, and then the supernatant was discarded. Thereafter, a fluorescent secondary antibody (Alexa Fluor 488-conjugated AffiniPure Goat Anti-Human IgG, Fcγ Fragment Specific, Jackson ImmunoResearch Inc., #109-545-098, diluted in a 1:500 ratio) was added at 100 μL/well, and the plate was incubated at 4° C. for 30 min away from light. The cells in each well were then rinsed twice with 100 μL of pre-cooled PBS and centrifuged at 500 g at 4° C. for 5 min, and then the supernatant was discarded. Finally, the cells in each well were resuspended in 200 μL of pre-cooled PBS. Fluorescence signal values were read using a BD FACS CANTOII flow cytometer, and the data were processed and analyzed using FlowJo v10 (FlowJo, LLC) software.
This example further utilized the method described in 0 to study the binding ability of the HCAb antibody PR004433 and a variant molecule thereof to NCI-H929 cells (ATCC, CRL-9068) highly expressing human BCMA.

Data set [2] has as its target T2, HEK293T-hBCMA cells highly expressing human BCMA (Homo sapiens, UniProt Q02223).
T2 construct: host or cells: HEK293T-hBCMA
T2 sequence (Q02223 1-184): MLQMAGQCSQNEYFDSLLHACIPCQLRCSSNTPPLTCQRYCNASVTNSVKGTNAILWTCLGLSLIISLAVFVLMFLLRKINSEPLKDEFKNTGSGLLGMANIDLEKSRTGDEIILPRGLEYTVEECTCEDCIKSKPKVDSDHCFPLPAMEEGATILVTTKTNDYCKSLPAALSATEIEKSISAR
Put plainly: FACS binding to HEK293T-hBCMA cells. As to conditions: flow cytometry FACS. How it is done:
as §2
(In general: A flow cytometer gives signals particle by particle.)

For data set [3], the system named is NCI-H929 cells. Put plainly: Cytotoxic killing experiment (Example 9.5), NCI-H929. As to conditions: 72 h, CellTiter-Glo; proteins up to 10 nM, mc-vc-PAB-MMAE up to 20 nM. How it is done:
The HEK293T-hBCMA, NCI-H929, HEK293T and SNU-16 cells were seeded in 96-well plates (Perkin Elmer, #6005225) respectively, with the following seeded cell number: 2500 cells/50 μL/well (HEK293T-hBCMA), 5000 cells/50 μL/well (NCI-H929), 2500 cells/50 μL/well (HEK293T), and 5000 cells/50 μL/well (SNU-16). Then, the plates were incubated overnight at 37° C. with 5% CO2. Then, a test sample serially pre-diluted was added at 50 μL/well. PR004433, PR004433-ADC and PR004432-ADC were diluted at a 3-fold concentration gradient from the highest final concentration of 10 nM, and mc-vc-PAB-MMAE was diluted at a 3-fold concentration gradient from the highest final concentration of 20 nM. In addition, a well without the test sample was set as a control well. Thereafter, the plates were incubated at 37° C. with 5% CO2 for 72 h, a CellTiter-Glo cell viability detection reagent (Promega, #G7573) was added, then the plates were incubated at room temperature for at least 10 min to obtain stable luminescence signals, and the luminescence values were detected using a microplate reader. The cell viability was calculated based on the luminescence values by the following formula:
Cell viability (%)=(A/B)×100%
In which, A=experimental well (target cells+test sample+medium); B=control well (target cells+medium)
as §1
In this example, the method described in 0 was used to study the specific cell killing activity of antigen-binding proteins PR006468 (including a mouse IgG2c hinge region), PR004433 (including a human IgG1 hinge region) and coupling products PR006468-ADC and PR004433-ADC thereof against tumor cells NCI-H929 (ATCC, CRL-9068) highly expressing human BCMA.
In this example, the method described in 0 was used to study the specific cell killing activity of PR005744 and a coupling product PR005744-ADC thereof against tumor cells NCI-H929 (ATCC, CRL-9068) highly expressing human BCMA.

The next data set concerns HCC1954 cells. Description: Cytotoxic killing experiment (Example 8.5), HCC1954. The conditions noted are these: 72 h, CellTiter-Glo; proteins up to 30 nM, mc-vc-PAB-MMAE up to 60 nM. How it is done: This example was to study the cell killing activity of the anti-5T4 antibody coupling product PR004432-ADC against a human breast cancer cell strain HCC1954 (ATCC, CRL-2338) highly expressing human 5T4.
The HCC1954 cells were seeded in a 96-well plate (Perkin Elmer, #6005225) at 4000 cells/50 μL/well and incubated overnight at 37° C. with 5% CO2. Then, a test sample serially pre-diluted was added at 50 μL/well. PR004432, PR004432-ADC and PR004433-ADC were diluted at a 3-fold concentration gradient from the highest final concentration of 30 nM, and mc-vc-PAB-MMAE was diluted at a 3-fold concentration gradient from the highest final concentration of 60 nM. In addition, a well without the test sample was set as a control well. Thereafter, the plates were incubated at 37° C. with 5% CO2 for 72 h, a CellTiter-Glo cell viability detection reagent (Promega, #G7573) was added, then the plates were incubated at room temperature for at least 10 min to obtain stable luminescence signals, and the luminescence values were detected using a microplate reader. The cell viability was calculated based on the luminescence values by the following formula:
Cell viability (%)=(A/B)×100% […]
as §1

Data set [4] relates to NCI-H929 cells. Description: Cytotoxic killing experiment (Example 7.5), NCI-H929. It is filed as cell-based, human. As to conditions: 72 h, CellTiter-Glo; PR001046-ADC at 0.1 μg/mL and above; PR001046 0.01-1 μg/mL; mc-vc-PAB-MMAE 0.1-10 nM. From the text:
The data were processed and analyzed by plotting using a GraphPad Prism 8 software. In this example, multiple groups of different PR001046-ADC samples were used, including samples containing different percentages of DAR=2 (D2) components before or after purification.

B1: PR004433-ADC (conjugate)
heavy: EVQLVETGGGLIQPGGSLRLSCAASGFTVSDSYMTWVRQAPGKGLEWVSVIFSGGRTYYSDSVKGRFTISRDNAKNTLYLQMNSLRAEDTALYYCARRNYDDTRGTDVFDIWGQGTMVTVSS[not shown - human IgG1 Fc]
Turning to B1, the “cytotoxic killing against HEK293T-hBCMA cells” value in the data set on HEK293T-hBCMA cells was “specific cytotoxicity; also recorded: effective and specific cytotoxic killing”. In data set [1], the “binding ability to NCI-H929 cells” value is recorded as “strong specific binding”. Moreover, the “binding activity to HEK293T-hBCMA cells” value in data set [2] is on record as “strong specific binding”. The “cytotoxic killing against NCI-H929 cells” value in the data set on NCI-H929 cells [3] is “specific cytotoxicity; also recorded: effective and specific cytotoxic killing”. The “cytotoxic killing against HCC1954 cells” value with HCC1954 cells is listed as “cannot produce effective killing”.

B2: PR001046: anti-BCMA HCAb antibody, SEQ ID NO: 68 (antibody)
heavy: EVQLVETGGGLIQPGGSLRLSCAASGFTVSDNYMTWVRQAPGKGLEWVSVIFSGGNTYYADSVKGRFTISRDNAKNTLYLQMNSLRAEDTALYYCARRNYDDTRGTDVFDIWGQGTMVTVSS[not shown - human IgG1 Fc]
On to B2, for which the “binding activity to HEK293T-hBCMA cells” value in data set [2] is “strong specific binding activity”. Further, the “cell killing of BCMA-positive cells NCI-H929” value in the data set with NCI-H929 cells [4] is given as “cannot effectively kill”.
